# This is one part of the list. Sequences were assembled here from the parent chain. Values near 0.05 are background.
# B1: TEV protease; numbered along this chain (parent)
# chain: MGESLFKGPRDYNPISSSICHLTNESDGHTTSLYGIGFGPFIITNKHLFRRNNGTLVVQSLHGVFKVKDTTTLQQHLVDGRDMIIIRMPKDFPPFPQKLKFREPQREERICLVTTNFQTKSMSSMVSDTSCTFPSGDGIFWKHWIQTKDGQCGSPLVSTRDGFIVGIHSASNFTNTNNYFTSVPKNFMELLTNQEAQQWVSGWRLNADSVLWGGHKVFMVKPEEPFQPVKEATQL
# Variants of: B1
# Assay: raw area under fraction-flipped curve 0-4 h after induction (AUC4h, not background-subtracted), DNA-recorder readout of cleavage of the substrate (dimensionless); higher = more cleavage of the substrate by the protease variant
# Conditions: temperature: 34 °C; time window: 0-4 h after rhamnose induction
# 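Also: Bxb1 expression induced with 0.2% (w/v) L-rhamnose at OD600 near 0.5, cultures sampled hourly, flipped fraction per protease–substrate barcode pair counted by paired-end Illumina sequencing.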
Variant,area with substrate ENQYFQS,area with substrate ENSYFQS,area with substrate ENFYFQS,area with substrate ENHYFQS,area with substrate ENPYFQS,area with substrate ENVYFQS,area with substrate ENWYFQS,area with substrate ENDYFQS,area with substrate ENEYFQS,area with substrate ENIYFQS
G213Q,0.0606,0.0746,–,–,–,–,–,–,–,–
G213N,0.0506,0.0338,0.0642,0.046,0.0633,0.0617,0.0374,–,–,–
T147D,–,–,–,–,–,–,–,0.0794,0.0607,0.0859
N53E,0.058,0.0608,0.0585,–,–,0.0748,–,–,0.0662,–
L205D,0.0698,0.0686,0.0531,–,0.0626,0.0611,0.0651,–,–,–
Q227F,0.0533,–,–,–,–,–,–,0.0689,0.064,0.12
Q227R,–,0.0637,–,0.0429,0.0569,0.115,0.0544,–,–,0.102
K100M,–,0.0464,0.065,0.0767,–,0.0767,–,–,0.084,–
E231L,–,0.0527,–,–,–,–,0.0107,–,0.0611,–
T70M,0.074,0.0659,0.0555,–,–,0.0805,–,–,–,–
G8E,0.0273,–,–,–,–,–,–,–,–,–
D161P,0.0317,0.0392,–,0.0582,–,–,–,0.0604,0.0524,–
K68M,–,–,–,0.0706,–,0.0765,–,–,–,–
N172K,–,–,–,–,–,–,–,–,0.0672,–
I110P,0.0687,–,0.0621,0.057,–,–,–,–,–,0.0653
P93F,0.0596,0.0541,–,–,0.0652,–,–,–,–,–
F101D,–,–,–,–,–,–,–,–,0.0341,–
F101Y,–,0.05,–,–,–,–,–,0.0456,–,–

Variant,area with substrate ENQYFQS,area with substrate ENSYFQS,area with substrate ENFYFQS,area with substrate ENHYFQS,area with substrate ENPYFQS,area with substrate ENVYFQS,area with substrate ENWYFQS,area with substrate ENDYFQS,area with substrate ENEYFQS,area with substrate ENIYFQS
G35N,–,0.0481,0.0292,–,–,–,–,–,–,–
G35C,–,0.053,–,0.0513,–,–,–,–,0.0523,–
K142Q,0.0674,0.0598,0.0688,0.0691,–,–,0.0727,0.0644,0.0583,–
E3I,0.0648,0.0257,0.0466,0.0675,0.0595,–,–,–,0.0744,0.146
M88S,0.0555,0.0621,–,–,–,–,0.0359,0.0552,–,–
N116M,–,–,–,0.0841,–,–,0.0303,–,0.0509,–
F6R,0.0587,0.0595,–,0.0658,–,–,0.0054,0.0708,0.0503,–
F180Q,0.0572,–,–,–,–,–,–,–,–,–
T129E,–,0.0529,–,0.0587,0.079,–,0.0681,0.0667,–,–
P225S,–,0.0628,–,0.054,0.0487,–,0.0474,0.0641,0.0794,–
I84Q,0.0656,0.0639,–,0.056,–,0.0818,0.0041,0.0576,0.051,–
M188I,0.0549,0.0612,0.0347,0.0378,–,–,0.0596,0.0852,0.0666,0.146
V229P,–,–,0.0721,0.0826,0.0471,0.0799,–,0.0611,–,–
F163T,–,0.06,0.0498,0.0567,–,0.0879,–,0.0549,–,–
M219K,0.0586,0.0552,–,–,0.0705,0.0601,–,0.0532,0.062,0.061
R87K,0.0577,0.0609,–,0.0428,–,–,–,0.058,–,–
R87W,0.0495,0.0744,0.0646,–,0.058,0.0703,0.0527,–,–,–
L235G,0.0606,0.0553,–,0.0789,–,–,–,0.0598,–,–

# Same assay, conditions: temperature: 34 °C; time window: 0-4 h after rhamnose induction
Variant,area with substrate ENNYFQS,area with substrate ENGYFQS,area with substrate ENTYFQS,area with substrate ENYYFQS,area with substrate ENKYFQS,area with substrate ENCYFQS,area with substrate ENMYFQS,area with substrate ENRYFQS
T147D,0.0373,–,–,–,–,–,–,–
N53E,–,0.0594,0.0601,0.0319,–,–,–,–
L205D,0.0759,0.0614,–,–,0.0504,–,–,–
Q227F,–,–,–,–,0.0647,0.0669,–,–
Q227R,–,–,–,0.0691,0.0722,–,0.0836,–
E231L,–,0.043,0.0585,–,–,–,–,–
T70M,–,0.0584,–,0.0269,–,–,–,0.0579
D161P,–,0.0623,–,–,–,–,–,–
K68M,–,–,–,–,0.0938,–,–,–
N172K,–,–,–,0.0584,–,–,–,–
I110P,0.0505,–,–,–,–,–,–,0.061
P93F,0.0655,–,0.0675,–,0.0598,–,0.0619,0.0557
F101D,–,–,–,–,–,–,–,0.035
F101Y,0.0579,–,–,0.0411,–,–,–,–
G35N,–,–,–,0.0371,–,–,–,–
G35C,0.0339,–,0.0498,–,–,–,–,–

Variant,area with substrate ENNYFQS,area with substrate ENGYFQS,area with substrate ENTYFQS,area with substrate ENYYFQS,area with substrate ENKYFQS,area with substrate ENCYFQS,area with substrate ENMYFQS,area with substrate ENRYFQS
K142Q,–,–,–,0.0607,0.0685,–,–,0.0585
E3I,0.075,–,0.0351,–,–,–,–,0.0556
M88S,0.0495,–,–,0.0541,0.066,–,–,0.0576
N116M,–,–,–,–,0.0535,–,–,0.0608
F180Q,–,–,–,–,0.0375,–,–,–
T129E,0.049,0.0702,0.0803,–,0.0612,–,–,0.0675
P225S,0.0758,–,–,–,–,–,–,0.0424
I84Q,–,–,–,0.0564,0.057,–,–,–
M188I,–,–,0.0426,–,–,–,–,0.0618
V229P,0.0587,0.0575,0.0631,0.0263,0.0587,0.1,–,0.0573
F163T,–,–,–,–,0.0604,–,–,–
M219K,0.065,0.0499,0.0591,0.0578,0.0852,0.0554,0.0704,–
R87K,0.0528,0.0788,–,–,–,–,–,–
R87W,0.0592,0.0582,–,–,0.0888,–,0.0835,–
L235G,–,–,0.0772,–,–,–,–,–
C131Y,0.0518,–,–,–,–,–,0.0777,–

# Reference: the supplement of paper PMC12217912
